# Results: PMC4336329 (PLoS ONE, 2015)
# About 14,000 (4.5%) of roughly 310,000 compounds showed an effect of 50% or more. The effect is printed as a negative number. The list shows a part of the results.
# Target: human ether-à-go-go-related gene (hERG) potassium channel (human, UniProt Q12809)
# Assay: primary screen, population patch clamp on CHO cells stably expressing hERG
# 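Further: peak tail current of the secondary pulse compared with the same well before compound.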
# human ether-à-go-go-related gene (hERG) potassium channel, sequence (Q12809 whole entry, looked up): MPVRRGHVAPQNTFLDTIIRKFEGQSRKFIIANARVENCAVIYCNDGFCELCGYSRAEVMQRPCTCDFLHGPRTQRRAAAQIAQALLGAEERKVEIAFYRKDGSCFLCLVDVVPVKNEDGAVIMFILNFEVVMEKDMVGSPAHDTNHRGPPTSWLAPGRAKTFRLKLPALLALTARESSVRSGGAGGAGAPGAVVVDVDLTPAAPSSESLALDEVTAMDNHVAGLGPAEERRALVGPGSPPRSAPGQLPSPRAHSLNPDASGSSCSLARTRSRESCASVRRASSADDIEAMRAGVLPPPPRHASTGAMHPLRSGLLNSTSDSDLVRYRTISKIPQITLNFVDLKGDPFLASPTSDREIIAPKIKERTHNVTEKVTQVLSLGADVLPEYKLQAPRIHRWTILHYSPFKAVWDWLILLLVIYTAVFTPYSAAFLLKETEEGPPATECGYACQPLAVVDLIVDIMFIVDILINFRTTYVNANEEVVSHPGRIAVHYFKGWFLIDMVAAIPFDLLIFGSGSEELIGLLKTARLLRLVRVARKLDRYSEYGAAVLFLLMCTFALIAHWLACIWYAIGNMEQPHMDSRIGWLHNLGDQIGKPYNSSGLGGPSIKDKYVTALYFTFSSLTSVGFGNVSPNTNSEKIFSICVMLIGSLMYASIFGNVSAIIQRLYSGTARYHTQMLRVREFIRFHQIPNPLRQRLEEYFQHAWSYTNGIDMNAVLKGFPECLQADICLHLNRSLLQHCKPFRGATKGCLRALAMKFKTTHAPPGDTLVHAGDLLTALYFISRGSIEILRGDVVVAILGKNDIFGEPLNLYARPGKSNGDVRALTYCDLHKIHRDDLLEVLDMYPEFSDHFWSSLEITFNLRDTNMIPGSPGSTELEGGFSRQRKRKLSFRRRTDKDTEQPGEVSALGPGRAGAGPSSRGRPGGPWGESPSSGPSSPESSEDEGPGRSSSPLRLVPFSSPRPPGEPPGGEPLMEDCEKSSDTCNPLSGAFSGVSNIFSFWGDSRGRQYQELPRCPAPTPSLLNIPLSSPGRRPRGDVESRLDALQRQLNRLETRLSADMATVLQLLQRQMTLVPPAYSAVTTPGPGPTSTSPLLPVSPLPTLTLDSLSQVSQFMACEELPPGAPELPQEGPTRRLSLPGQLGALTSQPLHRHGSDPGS
row,Structure (SMILES),"hERG current change (%, negative = inhibition) at 10uM [%]"
1,CCOc1ccccc1N(CC(=O)N/N=C/c1cc(Br)ccc1OC)S(C)(=O)=O,15.3
2,Cc1ccccc1C(=O)Nc1cccc(NC(=O)c2ccc(F)cc2)c1,1.98
3,Oc1oc(-c2ccco2)nc1C=Nc1ccccc1,-12.3
4,COc1cc(-c2nc3cnccn3c2Nc2ccc3c(c2)OCCO3)ccc1O,-4.62
5,O=C(Nc1ccc2oc(-c3ccc4ccccc4c3)nc2c1)c1cccs1,4.14
6,CN(Cc1ccccc1)S(=O)(=O)c1ccc(Cl)c(C(=O)OCC(N)=O)c1,-30
7,O=C1c2[nH]nc(-c3ccccc3O)c2C(c2ccccc2F)N1Cc1ccco1 (stereo not shown),10.9
8,CC(=O)c1cc2c(cc1NC(=O)CN1CCN(c3cccc(C(F)(F)F)c3)CC1)OCO2.Cl,5.1
9,O=C(Cn1c(=O)oc2ccccc21)Nc1ccccc1N1CCOCC1,29.1
10,CC1CCN(c2nc(/C=C/c3ccccc3)nc3ccccc23)CC1,-0.307
11,CNC(=S)N/N=C1\C2CN3CCN(C2)CC1(c1ccccc1)C3,-2.75
12,N#C/C(=C\c1ccc2c(c1)OCO2)C(N)=S,20.4
13,Cc1ccc(OCc2nc(-c3cccs3)no2)c([N+](=O)[O-])c1,2.24
14,COc1ccc(N(CC(=O)N2c3ccccc3CC2C)S(=O)(=O)c2c(C)nn(C)c2C)cc1 (stereo not shown),-25.9
15,CC(C)(C)C(=O)NC1CC2CCCC(C1)N2C(=O)Nc1cccc(Cl)c1 (stereo not shown),13.6
16,CCOC(=O)c1ccccc1NC(=O)CSc1nc2ccccc2n1CC(=O)N1CCCC1,-46.2
17,CCc1ccc(OCCNC(=O)OCc2ccccc2)cc1,-9.08
18,O=C(NCc1ccc(Cl)cc1)c1cc2c(s1)CS(=O)(=O)C2,-15.1
19,Cc1n[nH]c(=O)c2c(NC(=O)CSc3cc(Cl)ccc3Cl)oc(C)c12,-10.9
20,O=C(CSc1nnc(-c2ccccc2)n1-c1ccc(Cl)cc1)N/N=C/c1ccccc1C(=O)O,7.8
21,COc1ccc(CCN2CNc3c(c(=O)n(C)c(=O)n3C)C2)cc1OC,7.08
22,CN(C(=O)COC(=O)c1nc(-c2ccccc2)n(-c2ccccc2)n1)C1CCS(=O)(=O)C1 (stereo not shown),17.2

row,Structure (SMILES),"hERG current change (%, negative = inhibition) at 10uM [%]"
1,CC[n+]1c(C)cc(C)n1-c1ccccc1.[I-],-3.39
2,CCOC(=O)Cc1[nH]nc2c1C(c1ccoc1)C(C#N)=C(N)O2 (stereo not shown),-8.23
3,CCOc1cc([N+](=O)[O-])c2nc(N)sc2c1,8.54
4,COC(=O)[C@H](Cc1ccccc1)NC(=O)c1ccc2ccccc2n1,-25.1
5,CCOc1ccc(N2C(=O)C3=C(C(c4ccc(Cl)cc4)=NCCN3)C2c2cccnc2)cc1 (stereo not shown),-40.1
6,COc1cc(/C=C(\C#N)C(=O)NCc2ccccc2)ccc1OCc1ccc(C(=O)O)cc1,-12.4
7,CCN(Cc1ccccc1)S(=O)(=O)c1ccc(OC)cc1,-19.9
8,Cc1cc(C(=O)CN2C(=O)c3ccccc3S2(=O)=O)c(C)n1C(C)C,-9.98
9,O=C(NC1CCCCCCC1)C1CCN(S(=O)(=O)N2CCCC2)CC1,-2.62
10,Cc1ccc(C)c(OCc2nc3ccccc3[nH]2)c1,-2.46
11,CNC(=O)OCCc1nccn1C,-0.422
12,O=C(NCCN1CCOCC1)/C(=C\c1ccccc1Cl)NC(=O)c1ccccc1,-16.2
13,Cc1ccccc1-c1cccc(CN2CCN(C)C(CCO)C2)c1 (stereo not shown),-21.6
14,CCc1nnc(NC(=O)CSc2nccn2-c2cccc(C)c2)s1,4.62
15,CC(=O)Oc1cccc(C(=O)Nc2c[nH]c(=O)[nH]c2=O)c1,15
16,Cl.O=C(Nc1ncc([N+](=O)[O-])s1)c1cccs1,19.5
17,CCc1ccc(C2=NN(C(=O)CCC(=O)O)C(c3cccs3)C2)cc1 (stereo not shown),15.9
18,Cc1cccc(NS(=O)(=O)c2coc(C(N)=O)c2)c1C,6.97
19,O=C1/C(=C\c2ccc3c(c2)OCO3)CCC/C1=C/c1ccc2c(c1)OCO2,4.71
20,Cc1cc([N+](=O)[O-])cc2c1NC(=O)C2(O)N1CCCC(C)C1 (stereo not shown),-0.731
21,COC(=O)c1cccc(Cn2nc(C)c([N+](=O)[O-])c2C)c1,27.3
22,COc1ccc(S(=O)(=O)N2CCC(C(=O)Nc3cc(Cl)ccc3N3CCOCC3)CC2)cc1OC,3.97

row,Structure (SMILES),"hERG current change (%, negative = inhibition) at 10uM [%]"
1,CC(=O)Oc1ccc2occ(C(=O)c3cccs3)c2c1,7.7
2,CCCN(C(=O)COC(=O)c1cc(CC)c(C)s1)c1c(N)n(Cc2ccccc2)c(=O)[nH]c1=O,18.4
3,COC(=O)c1ccc(CN2CCc3ccccc32)cc1,14.8
4,COc1ccc(NC(=O)C2CC(c3c(F)cccc3Cl)=NO2)cc1OC (stereo not shown),10.8
5,C/C(=N\N1CCN(c2ccc(Cl)cc2)CC1)c1cccc([N+](=O)[O-])c1,-12.4
6,CS(=O)(=O)Nc1cccc(C2=NN(S(=O)(=O)c3ccccc3)C(c3cccs3)C2)c1 (stereo not shown),-1.94
7,CN(C(=O)COC(=O)COc1ccccc1F)C1CCS(=O)(=O)C1 (stereo not shown),2.55
8,CC(=O)Nc1ccc(-n2nnnc2SCC(=O)NC2CCCC2)cc1,3.75
9,CC(Sc1nnc(-c2ccco2)n1N)C(=O)NCC1CCCO1 (stereo not shown),1.53
10,COCCNC(=O)C(=O)NNS(=O)(=O)c1ccc(Cl)cc1,30.9
11,COc1ccccc1CCC(=O)Nc1cccc(S(=O)(=O)N2CCOCC2)c1,-13.6
12,COC(=O)c1ccccc1NC(=O)COC(=O)c1cccnc1,6.42
13,CCOC(=O)C1CCCN(C2CCN(Cc3nc(Cc4ccccc4)no3)CC2)C1 (stereo not shown),-60.3
14,Cc1ccc(-c2csc(Nc3ccc(S(N)(=O)=O)cc3)n2)o1,15.5
15,Nc1n[nH]c(N)c1N=Nc1cccc(C(F)(F)F)c1,4.44
16,O=C(CN1C(=O)N/C(=C\c2ccccc2OCc2ccc(C(=O)O)cc2)C1=O)Nc1ccc(F)cc1,12.3
17,COc1ccc(-c2cc(N3C(=O)Nc4ccccc4N3O)n[nH]2)cc1,4.35
18,CN(C(=O)CSc1nc2ccccc2c(=O)n1-c1ccc(F)cc1)C1CCS(=O)(=O)C1 (stereo not shown),-12.4
19,O=C(Nc1c2c(nn1-c1ccc(F)cc1)CS(=O)(=O)C2)C1CCCC1,18.1
20,Cc1nn(Cc2ccc(C(=O)Nc3nccs3)cc2)c(C)c1Cl,22.3
21,COC(=O)C1=C(C(=O)OC)[C@@H]2N(C)c3ccc(OC)cc3[C@@]23C[C@@H](C(=O)OC)N(C(=O)NCCBr)C3=N1,-32.9
22,CCCc1nc2ccccc2n1CCOC,21.8

row,Structure (SMILES),"hERG current change (%, negative = inhibition) at 10uM [%]"
1,COC(=O)CN1C(=S)N(c2ccc(F)cc2)C(=O)C1CC(=O)Nc1ccc(OC)cc1 (stereo not shown),2.98
2,CCN(C(=O)CSc1nnc(Nc2cccc(C)c2C)s1)C1CCS(=O)(=O)C1 (stereo not shown),-29.3
3,CC(C(=O)Nc1ccc(Br)cc1)N(C)CC(=O)NCc1ccco1 (stereo not shown),-31.3
4,CCN(c1ccccc1)S(=O)(=O)c1ccc(Cl)c(C(=O)O)c1,13.7
5,Cc1cc(-c2nnc(CCC(=O)N(C)CCc3ccccc3)o2)no1,5.71
6,CCN(CC)CCCNC(=O)c1cc(-c2ccc3c(c2)OCO3)on1,-18.8
7,O=C(CSc1ccc(Br)cc1)NCC1CCCO1 (stereo not shown),28.1
8,O=C(CN1CCN(Cc2ccccc2)CC1)Nc1nnc(C(F)(F)F)s1,17.6
9,Cc1ccccc1C(=O)NC1CC2CCC(C1)N2Cc1ccccc1 (stereo not shown),-25
10,COc1cccc(CN2C(=O)CCC2(C)C(=O)NC2CCCCCC2)c1 (stereo not shown),-11.7
11,O=C(Nc1cccnc1Cl)c1cc(-c2cccc(Cl)c2)on1,5.57
12,CC(NC(=O)Nc1ccc([N+](=O)[O-])cc1)C(c1ccccc1)N1CCOCC1 (stereo not shown),-11
13,COC(=O)c1cc(S(=O)(=O)NCc2cccc(OC)c2)cn1C,-12.7
14,O=C(Cc1ccccc1)Nc1ccc(NC(=O)C2CC2)nc1,5.56
15,O=C(CN1C(=O)NC(c2ccccc2)(c2ccccc2)C1=O)Nc1ccc2[nH]c(=O)[nH]c2c1,6.01
16,O=C(CCS(=O)(=O)c1cc2c(cc1Cl)NC(=O)CO2)NCCc1ccccc1,10.6
17,CC(C)Cc1nnc(NC(=O)CCC(=O)N2CCN(c3ccccc3F)CC2)s1,17
18,CCn1c(CSc2nc3ccccc3s2)nnc1SCC(N)=O,-6.87
19,Cl.N=c1sccn1CC(=O)N1CCc2ccccc21,-8.84
20,O=C1OCCC1Sc1nc2ccccc2n1Cc1ccccc1 (stereo not shown),-46.3
21,CCOC(=O)c1c(N2C(=O)Nc3cc(Cl)c(Cl)cc3N2O)sc2c1CCCCC2,7
22,CCOC(=O)C(NC(=O)c1cccc(Cl)c1)(Nc1sc2c(c1C(N)=O)CCC2)C(F)(F)F (stereo not shown),-25
